We go through 84 compounds from PubChem BioAssay (NCI).

Structures are written as SMILES.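 Step 1: Grow cells in 96-well plates. Step 2: Expose to compound for 48 hours at 5 concentrations. Step 3: Interpolate endpoints linearly; if unreached, use highest concentration. GI50 marks 50% less growth. TGI marks complete inhibition of growth.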 Bounds are passed on as bounds.

The test system of the assay is NCI-H322M lung. The experiment in a line: growth of human tumour cells (NCI), 48 h.
In the case of `NC1(C(=O)O)CCC(C(=O)O)CC1` (configuration not stated), the TGI is greater than 100 µM.

Consider `CC1=C(\C=C/C(C)=C/C=C/C(C)=C/C=C/C=C(C)\C=C\C=C(C)/C=C/C2=C(C)CCCC2(C)C)C(C)(C)CCC1`, for which the TGI is greater than 100 µM. As for `O=S(c1ccc(O)cc1)c1ccc(O)cc1`, the TGI is greater than 100 µM. Still for that read-out and setting: the figure for `Cc1nc2nnc(CCCCCCCCc3nnc4nc(C)[nH]n34)n2[nH]1` is greater than 100 µM; for `CCc1nnc2sc(-c3ccc(-c4ccccc4[N+](=O)[O-])o3)nn12` it is greater than 100 µM. As to `O=C(Cn1c(=O)oc2ccccc21)N(c1ccccc1)c1ccccc1`, the TGI is greater than 100 µM. In turn, `c1cc(CSP234N5CCN2CCN3CCN4CC5)cc(CSP234N5CCN2CCN3CCN4CC5)c1` displayed a TGI greater than 100 µM. In turn, `COc1ccc2nc(-c3ccc(N)cc3)sc2c1` returned a TGI greater than 100 µM. The same measure, in the same setting: the figure for `CN1N=C(c2ccncc2)OC1c1ccc(C(F)(F)F)cc1` (configuration not stated) is greater than 100 µM; for `Cc1cccc(NC(=S)NNC(=O)c2cc(-c3ccccc3)nc3ccccc23)c1` it is 97.3 µM; for `CSCSCC(CO)NC(=O)/C=C/c1c(C)[nH]c(=O)[nH]c1=O` (configuration not stated) it is greater than 100 µM.

In turn, `CCC(C)C(NC(=O)c1cccc2c(=O)c3ccccc3[nH]c12)C(=O)O` (configuration not stated) had a TGI greater than 100 µM.

Compound `CC/C(CC(=O)CCC(=O)Nc1ccc(C)c(C)c1)=N\NC(=O)c1cc2ccccc2cc1O` registered a TGI greater than 100 µM. The compound `COc1cc(O)c(C(=O)C2Cc3ccccc32)c(OC)c1` (configuration not stated) gave a TGI greater than 100 µM. `CCCCCCNC(=O)CCN(C(=O)O)S(=O)(=O)c1ccc(NC(=O)c2ccccc2)cc1` had a TGI greater than 100 µM. Still for that read-out and setting: with `COc1cc2c(cc1C)NC(=O)/C2=C/c1c(Cl)[nH]c2ccccc12` the figure was 25.8 µM; with `CN1C/C(=C\c2ccccc2)C2=NN(C(N)=S)[C@H](c3ccccc3)[C@@H]2C1`, greater than 100 µM; with `CCn1c(=O)nc2n(-c3ccc(SC)cc3)c3ccccc3nc-2c1=O`, greater than 100 µM. For `CC(C)C(Sc1nc(N)nc2nc[nH]c12)C(=O)O` (configuration not stated), the TGI was greater than 100 µM.

On to `C=C1C(=O)C23C(O)CC4C(C)(C)CCC(O)C4(C)C2CC(OC(C)=O)C1[C@H]3O` (some centres not stated), for which the TGI worked out at 23.1 µM. On to `CCOC(=O)c1c(CN2CCCCC2)nc2ccc(Cl)cc2c1-c1ccccc1`, for which the GI50 was 44.1 µM and the TGI was greater than 100 µM.

`Cc1c(CCCl)c(Cl)n2c(nc3ccccc32)c1C#N` showed a TGI of 3.05 µM. `COC(=O)CC(=O)OC1C[C@@H]2CCC3C(C)(C)CCC[C@]3(C)C23CC[C@@]1(C)C3` (some centres not stated) registered a TGI of 34 µM. Compound `COc1cc(C2c3cc4c(cc3[C@@H](Nc3ccc(F)cc3)C3COC(=O)[C@H]23)OCO4)cc(OC)c1O` (some centres not stated) returned a TGI of 72.9 µM. The same measure, in the same setting: the figure for `CCC(CCCC[C@H]1CC[C@@H]2CC(=O)C[C@H]12)OC` (some centres not stated) is greater than 100 µM; for `COc1ccc(/C=C(\C#N)c2ccccn2)cc1OC` it is greater than 100 µM; for `NP1(Oc2ccc(F)cc2)=NP(N)(Oc2ccc(F)cc2)=NP(Oc2ccc(F)cc2)(Oc2ccc(F)cc2)=N1` (configuration not stated) it is 15.2 µM. The same measure, in the same setting: with `COc1ccc(/C=N/n2c(-c3ccccc3)n[nH]c2=O)c(OC)c1` the figure was greater than 100 µM; with `CCCNC(=O)c1cc(OC)c(OC)cc1NC(=O)C12CC3CC(CC(C3)C1)C2`, 32.3 µM; with `N#CC1=C(N)OC2=C(CCCc3ccc([N+](=O)[O-])cc32)C1c1ccc(Cl)cc1` (configuration not stated), greater than 100 µM. On to `COc1cc([C@H]2OC[C@@H]3C(c4cc(OC)c5c(c4)OCO5)OC[C@H]23)cc(OC)c1OC` (some centres not stated), for which the TGI was greater than 100 µM. The compound `Cc1ccccc1NC(=O)C(=O)C(C(=O)c1ccccc1F)C1OC(=O)c2ccccc21` (configuration not stated) displayed a TGI of 78.5 µM. Still for that read-out and setting: the figure for `C1CCC(CC2CCC(NC3=NCCO3)CC2)CC1` (configuration not stated) is 61 µM; for `O=C1OCOC2(CCCC2)C1c1ccccc1` (configuration not stated) it is greater than 100 µM; for `O=C1c2c(c3c4ccccc4n(CC4CO4)c3c3[nH]c4ccccc4c23)C(=O)N1Cc1ccccc1` (configuration not stated) it is greater than 100 µM. The same measure, in the same setting: the figure for `COC(=O)c1sc2c(c1C(=O)OC)C(=Nc1ccc(OC)cc1)SC2=Nc1ccc(OC)cc1` is 2.98 µM; for `CCN(CC)c1ccc(N=Nc2ccc(-c3nc4cccnc4s3)cc2)cc1` it is greater than 100 µM; for `COC1=CC(=O)C2(C=C1OC)OC[C@H]1Oc3c(ccc4c3C=CC(C)(C)O4)C(=O)[C@H]12` (some centres not stated) it is greater than 100 µM.

With `N/N=C1/C(=O)N(c2ccc(Cl)cc2)C(=O)C(=O)C1c1nc2ccccc2s1` (configuration not stated), the TGI was greater than 100 µM.

`Cc1cc2nc3c(N)nn(CCCN(C)C)c3nc2cc1C` gave a TGI greater than 100 µM. Take `O=C(O)COc1c(Cl)cc(Cl)c(C(c2c(Cl)cc(Cl)c(OCC(=O)O)c2Cl)C(Cl)(Cl)Cl)c1Cl`: the TGI was found to be 48.1 µM. On the same count and under the same terms, the figure for `O=C(OC[C@H]1C[C@H]2C(=O)OCCC[C@H]2O1)c1ccccc1` is greater than 100 µM. The same measure, in the same setting: with `CC(C)C1OC(=O)C(Cc2ccccc2)N(C)C(=O)C(C(C)C)OC(=O)C(Cc2ccccc2)N(C)C(=O)C(C(C)C)OC(=O)C(Cc2ccccc2)N(C)C1=O` (configuration not stated) the figure was 2.89 µM. In the case of `Cc1cnc(C(=O)Nc2nc3ccc(S(=O)(=O)Nc4ccc(C(C)(C)C)cc4)cc3[nH]2)cn1`, the GI50 was 0.676 µM and the TGI was found to be 13.8 µM.

With `CN(C)NC(=O)NC12CC3CC(CC(C3)C1)C2`, the TGI was greater than 100 µM. In the case of `CCOC(=O)Nc1cc2c(c(N)n1)N=C(c1ccc(Cl)cc1Cl)CN2`, the TGI is 27.5 µM.

`CCN(CC)C(=O)N[C@@H](CC(C)C)C(=O)NC` returned a TGI greater than 100 µM.

Take `CNC(=O)c1sc(-n2cnc3cc(OC)c(OC)cc32)cc1OCc1ccccc1C(F)(F)F`: the GI50 was greater than 25 µM and the TGI is greater than 25 µM. On to `O=C(/C=C/c1ccco1)Nc1ncc(Cc2cc(Cl)ccc2Cl)s1`, for which the GI50 is 0.492 µM and the TGI was greater than 100 µM. As to `CC1CCc2c(C(=O)Nc3ncc(Cc4cccc([N+](=O)[O-])c4)s3)csc2C1` (configuration not stated), the GI50 was 2.29 µM and the TGI is greater than 100 µM. Compound `CO[C@H]1C[C@H](O[C@H]2CC[C@@]3(C)[C@H](CC[C@@H]4[C@@H]3CC[C@]3(C)[C@@H](C5=CC(=O)OC5)CC[C@]43O)C2)O[C@H](C)[C@H]1O` yielded a TGI of 0.0499 µM. In the case of `N#Cc1cnn(C(=O)c2nn(-c3ccc(Cl)cc3)cc2O)c1N`, the GI50 is 0.439 µM and the TGI was 46.6 µM.

`O=C(CC1(O)C(=O)Nc2ccc(Cl)cc21)c1ccc(C(=O)NCC2CCC3(CC2)OOC2(CCCCC2)OO3)cc1` (configuration not stated): the GI50 is 13.1 µM and the TGI is 31.5 µM.

`CC(=O)OC1(C(C)=O)CC2(c3ccccc3)OC1(c1ccccc1)c1ccccc12` (configuration not stated) registered a TGI greater than 100 µM. `O=C1c2ccccc2CC12Cc1ccc3c(c1C2=O)CCCC3` (configuration not stated) showed a TGI greater than 100 µM.

The compound `CC(NC(CC12CC3CC(CC(C3)C1)C2)C(N)=O)c1ccccc1` (configuration not stated) showed a TGI greater than 100 µM. Still for that read-out and setting: the figure for `Clc1ccc(Cc2nc3cc(Cl)c(Cl)cc3n2CC2CCCN3CCCCC23)cc1` (configuration not stated) is 25.7 µM. As to `NS(=O)(=O)c1cccc(Nc2cc(-c3ccc(F)cc3)[nH]n2)c1`, the GI50 was 14.3 µM and the TGI is greater than 25 µM. The compound `O=C(OC1C#CCSCC#C/C=C\1)c1ccc2c(c1)C(=O)c1ccccc1C2=O` (configuration not stated) came in with a TGI greater than 100 µM. Turning to `CC/C(=C/c1ccc(OC)cc1)[N+](=O)[O-]`, the GI50 was 10.7 µM and the TGI is 23.6 µM. In the case of `Nc1ncc(CN2CCCC2)c(-c2ccccc2O)n1`, the TGI is greater than 750 µM. Turning to `CSc1ccc(-c2cn3ccsc3n2)cc1`, the GI50 was greater than 36 µM and the TGI is greater than 89.9 µM. Regarding `Clc1ccc(Cc2nc3cc4ccccc4cc3[nH]2)cc1Cl`, the TGI is 53.2 µM. On to `COc1cc(C(=O)/C=C/c2c[nH]c3ccccc23)cc(OC)c1OC`, for which the GI50 was 0.0637 µM and the TGI worked out at 20.8 µM. For `CNC(=O)OC1/C(C)=C\C(C)C(O)C(OC)CC(C)CC2=C(OC)C(=O)C=C(C2=O)N(C)C(=O)/C(C)=C/C=C\C1OC` (configuration not stated) the same measures were less than 0.1 µM and 46.2 µM.

In the case of `COc1cccc(C2c3cc4c(cc3OC(NNS(=O)(=O)c3ccc(C)cc3)C2C)OCO4)c1O` (configuration not stated), the TGI was greater than 100 µM.

Compound `CC(=O)O[C@H]1CSC[C@@H](OC(C)=O)C1[N+](=O)[O-]` (some centres not stated) yielded a TGI greater than 100 µM. Regarding `COc1ccc([C@@H]2[C@@H](Cl)C(=O)N2c2cc(OC)c(OC)c(OC)c2)cc1C`, the GI50 was 2.19 µM and the TGI was greater than 100 µM.

For the compound `CCOC(=O)C(=O)CC(=O)C(Br)C(Br)c1ccc(Cl)cc1` (configuration not stated), the TGI is greater than 100 µM. Still for that read-out and setting: the figure for `CN(N=O)c1ccc(/C=C/c2ccnc3ccccc23)cc1` is greater than 100 µM.

In the case of `COc1ccccc1NC(=O)c1sc2ncn(CCOc3ccccc3)c(=O)c2c1C`, the GI50 is greater than 50 µM and the TGI is greater than 50 µM.

In turn, `CCOC(=O)C(Oc1ccc(OC)c2c1C(=O)CCC2)c1ccccc1` (configuration not stated) had a TGI greater than 100 µM. For the compound `O=C1c2ccccc2C(=O)c2c1ccc1c3ccccc3n(-c3ccccc3)c21`, the TGI turned out to be 43.3 µM. On to `O=C1CCNC/C1=C\c1ccccc1`, for which the TGI was greater than 100 µM. The same measure, in the same setting: with `COc1ccc(N2C(=O)[C@@H]3[C@@H]4CC(C)CC[C@@H]4c4c([nH]c5ccccc45)[C@@H]3C2=O)cc1` (some centres not stated) the figure was 86.9 µM. As for `O=C(c1ccccc1)c1nn(-c2cccc(Cl)c2)c2nc3nc(-c4ccccc4)cc(=O)n3nc12`, the GI50 was 0.86 µM and the TGI is greater than 25 µM. Compound `O=C(NCC(O)COc1ccccc1)c1ccccc1O` (configuration not stated) showed a TGI greater than 100 µM. `CCOC(=O)c1c(NS(=O)(=O)c2ccccc2)sc2c1CCCC2` came in with a TGI greater than 100 µM. `COC1=CC(=O)[C@@]2(C)C(C)[C@H](c3ccccc3)[C@H]2C1=O` (some centres not stated) showed a TGI greater than 100 µM.

Turning to `CCCCCCCCCC(=O)Oc1ccc(/C(=C(/C)c2ccccc2)c2ccc(OCCN3CCCC3)cc2)cc1`, the GI50 was 8.04 µM and the TGI is 15.7 µM. For `Cc1c2ccncc2c(C)c2c1[nH]c1ccc(O)cc12` the same measures were 0.0214 µg/mL and 0.345 µg/mL.

Compound `CC(C)(c1ccc(C=O)o1)c1ccc(C(C)(C)c2ccc(C=O)o2)o1` came in with a TGI greater than 100 µM. Compound `CCCCCCCC(=O)NC(C)(C)C(=O)NCC(=O)NC(CC(C)C)C(=O)NC(C)(C)C(=O)NCC(=O)NCC(=O)NC(CC(C)C)C(=O)NC(C)(C)C(=O)NCC(=O)NC(C(=O)NC(CO)CC(C)C)C(C)CC` (configuration not stated) registered a TGI of 7.58 µM. Regarding `CC(=O)[CH-]C(=O)c1ccccc1.CC(=O)[CH-]C(=O)c1ccccc1.Cl.[O-]CCc1ccccn1.[O-]CCc1ccccn1.[Ti+4]`, the GI50 was 18.5 µM and the TGI amounted to 58.3 µM.
